Measurements published in the supplement of paper PMC3334620.
Over roughly 33,000 sequences, “E-score (-0.5 to 0.5)” has its median near -0.016; the highest 2% begin near 0.32. The list shows a part of the results.

Target: T1, Stp1 (UniProt B3LFK1)
T1 sequence: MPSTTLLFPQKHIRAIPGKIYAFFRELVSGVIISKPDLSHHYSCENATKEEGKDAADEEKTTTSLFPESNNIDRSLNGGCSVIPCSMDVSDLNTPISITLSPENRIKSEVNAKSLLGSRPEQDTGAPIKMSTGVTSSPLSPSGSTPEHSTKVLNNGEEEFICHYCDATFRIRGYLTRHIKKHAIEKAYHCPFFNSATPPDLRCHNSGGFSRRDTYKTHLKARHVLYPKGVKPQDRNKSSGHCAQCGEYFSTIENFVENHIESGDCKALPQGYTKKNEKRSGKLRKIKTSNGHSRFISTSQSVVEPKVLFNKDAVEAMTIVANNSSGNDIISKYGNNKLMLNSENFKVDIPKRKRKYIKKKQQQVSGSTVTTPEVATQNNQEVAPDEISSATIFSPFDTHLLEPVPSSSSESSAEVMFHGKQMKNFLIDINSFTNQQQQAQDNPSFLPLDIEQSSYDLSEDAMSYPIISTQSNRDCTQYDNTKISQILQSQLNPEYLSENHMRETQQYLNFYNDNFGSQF
Test: PBM E-score (8-mer binding enrichment) (E-score (-0.5 to 0.5)); higher = stronger / more preferred TF binding; most listed sequences are background and not binding sites
Details: protein concentration: 200 nM; construct: GST-full length
Method in brief: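 GST-tagged yeast TFs (full-length or DNA-binding domain) were made by PURExpress in vitro transcription/translation and applied at about 100-200 nM to universal all-10-mer Agilent arrays. The arrays were made double-stranded by primer extension, on fresh or once-stripped slides. Bound protein was detected with fluorescent anti-GST, and scans were normalised with masliner. Each ungapped eight-base word, pooled with its reverse complement, received an E-score (modified Wilcoxon-Mann-Whitney statistic) from the Universal PBM Analysis Suite.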

| Sequence | PBM E-score |
| --- | --- |
| AGGTATTC | -0.0247 |
| AATACGCA | 0.0268 |
| ACGCGGGC | 0.103 |
| AAATCAAC | -0.174 |
| CTCGCTCC | 0.219 |
| ACACCAGG | -0.258 |
| CGAGCCAA | -0.0114 |
| CCACGGAC | -0.0119 |
| AGCGAGCA | -0.134 |
| GTCGCCTA | 0.124 |
| AAGAAACG | 0.147 |
| TCAGTCGA | -0.0184 |
| CCTGAGAA | -0.129 |
| CCCGTGTA | 0.0889 |
| ATATACTA | 0.281 |
| CAGAGCGG | -0.0315 |
| CCTGCCTA | -0.0123 |
| AGTTGTTG | -0.0282 |
| ATCATACC | 0.12 |
| GAAGGCGA | 0.129 |
| GACATGTC | -0.251 |
| ATTATCTA | 0.271 |
| ACCCGGAC | -0.232 |
| AAAAAACA | 0.166 |
| GTTATGCA | -0.175 |

| Sequence | PBM E-score |
| --- | --- |
| GGCTACCC | -0.124 |
| GGATCCGA | -0.221 |
| CGTTCGGC | 0.222 |
| AGTATATC | 0.0639 |
| ATGTAGGA | -0.0969 |
| ATCGACAT | 0.118 |
| CGGTTTTC | 0.156 |
| CGTAACTA | -0.00679 |
| AAAAGAGC | -0.103 |
| CGGGCTTA | -0.111 |
| ACCTCATC | -0.232 |
| CGGACCCG | -0.109 |
| AGAGCTTA | 0.00485 |
| ATCTCATA | -0.0182 |
| CTACCATC | -0.197 |
| GAGGCCGC | 0.095 |
| CCCGGAAC | -0.128 |
| AACTGTAA | 0.138 |
| GCTGCACC | -0.289 |
| CGCATTAC | -0.0452 |
| GAGCCTTA | 0.222 |
| GACTTGGC | -0.232 |
| ATGACAAG | -0.0428 |
| CGTCGGCC | -0.0975 |
| ACCCGTAA | 0.0634 |

| Sequence | PBM E-score |
| --- | --- |
| CGCGGGGA | 0.0818 |
| CCCTCGAC | -0.176 |
| AATACTAT | 0.0992 |
| GTCATTCA | 0.0248 |
| GCAAAACA | 0.0992 |
| GTACGTAC | -0.0763 |
| AGAGATAC | 0.18 |
| CCAAGAGG | -0.0517 |
| AGAGCAAA | -0.0976 |
| CAGGAGAG | -0.238 |
| AGGGTGTC | -0.266 |
| CCTGTGTA | 0.033 |
| CTGCAACA | 0.0237 |
| ATCTATCA | 0.0923 |
| AAGATATA | 0.1 |
| ACTTCTGC | 0.0768 |
| CATGACGC | 0.0645 |
| ATTATGGG | -0.0601 |
| GTCTGCTA | 0.0581 |
| CCCCCTCG | -0.353 |
| CAAGACCA | -0.15 |
| AAGGAGGC | -0.122 |
| ATAGAATA | 0.138 |
| CAGACTAA | -0.0572 |
| ATGTACCG | 0.0424 |

| Sequence | PBM E-score |
| --- | --- |
| AAGGAGTG | -0.0636 |
| ACCAATAT | 0.012 |
| CGGCTCTA | 0.425 |
| AGTACGCA | -0.25 |
| AAGAGACG | 0.101 |
| CTCAGAAA | 0.0285 |
| CTTACCCC | -0.264 |
| ACTTGTTG | -0.0561 |
| AACCGTGA | -0.155 |
| ACACACGC | 0.0943 |
| CGCCAAGC | -0.00314 |
| ACCTCGCA | -0.08 |
| AACAGCAA | 0.1 |
| CTCGGCGC | 0.382 |
| CACGGTGA | 0.131 |
| GAGACCTC | -0.263 |
| ATGTAAAG | 0.0971 |
| AGGTCTTA | -0.183 |
| CAGAGTCG | -0.204 |
| CAGCATAG | 0.0477 |
| ATAGCACC | -0.0975 |
| CGCCATAG | 0.165 |
| CGGCCATA | 0.145 |
| ACGCAATG | -0.0464 |
| CATCACTA | -0.0115 |

| Sequence | PBM E-score |
| --- | --- |
| AAAAGTGC | 0.124 |
| GAATCATA | 0.0773 |
| CCACCGGG | -0.231 |
| CATTTAAA | 0.279 |
| AGGCCAGA | -0.103 |
| CCGGTTTA | -0.161 |
| GTCATAAC | -0.0625 |
| CCGTACCA | 0.261 |
| ATTACTTA | 0.0671 |
| CTTATTTC | 0.182 |
| CGTTACCA | -0.0254 |
| CTAGACGC | -0.125 |
| CTAAAGAG | -0.0751 |
| AACCCGCG | 0.297 |
| CTAAACAG | -0.0365 |
| CGGTGACA | -0.0628 |
| AACATGTG | 0.15 |
| CATAGCAC | 0.0761 |
| CCCCGACG | -0.319 |
| ACGTTGCT | 0.00321 |
| CACTGTAC | -0.238 |
| CATAATGC | 0.0509 |
| GCCTCCCA | -0.17 |
| GAACGACA | -0.0397 |
| GGCAGGAC | -0.259 |

| Sequence | PBM E-score |
| --- | --- |
| GGATTAGA | -0.0751 |
| AGATAACG | 0.0934 |
| GAAGCTGA | 0.0825 |
| CACTACGA | 0.117 |
| GCACCGAC | 0.0657 |
| GATTTACA | 0.176 |
| AGTTTTTG | 0.0652 |
| GGAAGTAA | -0.0379 |
| CGCTGGAA | -0.0996 |
| ATCACGGG | 0.00016 |
| AAGCTCTA | -0.168 |
| CGACGGCA | 0.299 |
| GACATGAC | -0.23 |
| GGTAATTA | 0.0758 |
| CCGAATTC | 0.113 |
| CAATCGAG | -0.175 |
| GAAATGCA | -0.0558 |
| GCGCTGCC | 0.101 |
| CCTAAGCA | -0.132 |
| GCGTGACA | 0.0835 |
| CTGCTATA | 0.149 |
| ACCATGTC | 0.0222 |
| CGGTTTTA | 0.0483 |
| CATTCCCC | -0.176 |
| AGGCCCTG | -0.157 |

| Sequence | PBM E-score |
| --- | --- |
| GAAAAAAA | 0.161 |
| CCGGTTTC | -0.0319 |
| CTAAGACA | -0.0409 |
| GACAAATC | -0.0574 |
| GAAAAGAC | 0.122 |
| CGCCTTAC | 0.405 |
| TCTGCTCA | -0.136 |
| CAAAAGGG | -0.0564 |
| ATAGATAC | 0.00676 |
| GTACACGA | 0.136 |
| CCGTATGA | 0.337 |
| TTACTGAA | 0.165 |
| GACATTCA | 0.0582 |
| AGCAGTCC | -0.264 |
| CGCGCTGA | -0.0138 |
| ACACGTCG | -0.162 |
| AATGGTTC | 0.0729 |
| GAGTGGCC | -0.0758 |
| GGCAAAGA | 0.19 |
| ATGAGACA | -0.0615 |
| GACCGAAC | -0.0124 |
| GCATCGCC | 0.254 |
